# Data: PubChem BioAssay AID902 (National Center for Advancing Translational Sciences (NCATS), 2007)
# Out of some 130,000 compounds screened, about 1,900 (1.5%) were called active. This list was built around the results that the source calls inconclusive (neither active nor inactive); the mix of calls is not that of the screen. The call rests on the fitted dose curve; in most records, active means well fitted cell-killing curve with a large enough effect; inconclusive means small, poorly fitted or top-dose-only effect; inactive means no such curve, though single readings can be large or run the other way. A potency beside an inconclusive call is a rough fit, not a confirmed value.
# Assay: qHTS Screen for Compounds that Selectively Target Cancer Cells with p53 Mutations: Cytotoxicity of p53ts Cells at the Nonpermissive Temperature; further: nearly all actives have a fitted effect of over 55% in size
# Conditions: H1299-p53A138V viability at 39C, ATP luminescence, 24 h; activity change, negative = cell killing: at 46.1 µM (top of the series)
# On the % scale 0 is the no-effect control and ±100 the full control effect; potency means the concentration at half of the fitted maximal effect; tags describe the fitted curve by direction and shape.
SMILES,Potency,"activity change, negative = cell killing"
CCn1c(=O)cc(OCC(=O)N(C)c2cc(Cl)ccc2C)c2ccccc21,"inconclusive: 25.1 µM [cytotoxic, single point]",–
Oc1ccc(NCc2ccccc2OCc2ccc(Cl)cc2)cc1,"inconclusive: 12.6 µM [cytotoxic, single point]",–
c1ccc(-c2noc(C3CCCCC3)n2)nc1,"inconclusive: 10 µM [cytotoxic, partial curve]",–
CCCCn1c(CN2CCOCC2)nc2c1c(=O)n(C)c(=O)n2C,active: 3.98 µM,–
CCOc1ccc(NC(=O)c2cc(S(=O)(=O)NC3CCCCCC3)ccc2F)cc1,"inconclusive: 10 µM [cytotoxic, partial curve, poor fit]",–
CCCCCCCN(C(=O)CCl)c1cccc(C)c1,"inconclusive: 25.1 µM [cytotoxic, single point]",–
COc1ccc(-c2nc3n(n2)C(c2ccc(OC)c(OC)c2)C(C(=O)Nc2cccnc2)=C(C)N3)cc1 (stereo not drawn),"inconclusive: 10 µM [cytotoxic, partial curve, poor fit]",–
CCCC(=O)N1CCN(c2ccc(NC(=O)c3cc4ccccc4o3)cc2Cl)CC1,active: 15.8 µM,–
CCOC(=O)c1ccc(CN(Cc2ccc(Br)cc2)S(=O)(=O)c2cccc(Cl)c2C)cc1,"inconclusive: 15.8 µM [cytotoxic, partial curve, poor fit]",–
COc1cc(C(=O)NCC(c2ccc(Cl)cc2)N2CCOCC2)cc(OC)c1OC (stereo not drawn),"inconclusive: 0.126 µM [cytotoxic, full curve, poor fit]",–
COc1ccc(C(NC(=O)c2c(F)c(F)c(F)c(F)c2F)c2ccccc2)cc1 (stereo not drawn),"inconclusive: 35.5 µM [cytotoxic, single point]",–
CCCCNc1nc2ccccc2c2nc(-c3ccccc3)nn12,–,inactive: -3.34%
COc1cc(OC)c2c(=O)c(O)c(-c3ccc(OC)c(OC)c3)oc2c1,"inconclusive: 15.8 µM [cytotoxic, single point]",–
O=C(N/N=C/c1ccccc1O)/C(=C/c1ccccc1)CCO,"inconclusive: 17.8 µM [cytotoxic, single point]",–
CCC1CCCCN1Cc1c(O)ccc2c(=O)c(Oc3ccccc3Cl)c(C(F)(F)F)oc12 (stereo not drawn),"inconclusive: 15.8 µM [cytotoxic, single point]",–
CCOc1ccc(S(=O)(=O)Nc2cccc(-c3ccc(N4CCCC4)nn3)c2)cc1,"inconclusive: 0.251 µM [cytotoxic, full curve, poor fit]",–
Cc1ccc2c(CC(=O)Nc3cccc(C(F)(F)F)c3)coc2c1,"inconclusive: 25.1 µM [cytotoxic, single point]",–
O=C(CCCCCN1C(=O)c2ccccc2C1=O)Nc1ccc(F)cc1,–,inactive: 6.6%
CC(=O)c1ccc(S(=O)(=O)Nc2ccc(-c3ccc(N4CCCCC4)nn3)cc2)cc1,active: 3.98 µM,–
Cc1cc(C(=O)Nc2ccc3c(c2)OCCO3)c(C)o1,active: 12.6 µM,–
Cc1ccc(-c2nnn3c2nc(NCCc2ccccc2)c2ccccc23)cc1,"inconclusive: 0.0063 µM [cytotoxic, full curve, poor fit]",–
Cc1cc(NC(=O)NC(=O)c2ccc(F)cc2F)n[nH]1,"inconclusive: 15.8 µM [cytotoxic, partial curve]",–

SMILES,Potency,"activity change, negative = cell killing"
CC(=O)Nc1ccc(C(=O)Nc2ccc3c(c2)OCO3)cc1,–,inactive: -10.2%
COc1ccc(S(=O)(=O)Nc2ccc3c(c2)sc(=O)n3C)cc1Cl,"inconclusive: 0.199 µM [cytotoxic, full curve, poor fit]",–
COC(=O)CC(=O)CSc1nc2cc(C(=O)NC(C)C)ccc2c(=O)n1CCc1ccccc1,"inconclusive: 10 µM [cytotoxic, partial curve]",–
Cc1ccc(Cn2c(C(=O)Nc3ccc(Cl)cc3)cc3sccc32)cc1,"inconclusive: 31.6 µM [cytotoxic, single point]",–
CS(=O)(=O)c1ncc(Cl)c(C(=O)N2CCN(c3cccc(Cl)c3)CC2)n1,active: 2.51 µM,–
Cn1nc(-c2ccc(N3CCCCC3)c(NC(=O)c3ccco3)c2)c2ccccc2c1=O,–,inactive: 0.706%
COc1ccc(CC(=O)c2ccccc2C(=O)O)cc1,active: 10 µM,–
CCN(CC)S(=O)(=O)c1ccc(NC(=O)c2nn(C)c3c2CSc2ccccc2-3)cc1,–,inactive: -2.38%
Fc1ccc(Nc2nc(SCc3cccc(F)c3)nc3ccccc23)cc1,"inconclusive: 39.8 µM [cytotoxic, single point]",–
Nn1c(-c2cccs2)nc2sc3c(c2c1=O)CCCC3,"inconclusive: 15.8 µM [cytotoxic, partial curve]",–
CCc1ccc(CNC(=O)Cn2ccc3cc(S(=O)(=O)N4CCCCCC4)ccc32)cc1,"inconclusive: 2 µM [cytotoxic, full curve, poor fit]",–
COc1cccc(OC)c1C(=O)N1CCN(Cc2ccccc2C(F)(F)F)CC1,"inconclusive: 25.1 µM [cytotoxic, single point]",–
O=[N+]([O-])c1ccc(S(=O)(=O)Cc2ccccc2)c2nonc12,–,inactive: 8.46% [at 9.22 µM]
Cc1ccc(NC(=O)Cc2ccc(NC(=O)N3CCCCc4ccccc43)cc2)cc1Cl,"inconclusive: 2.51 µM [cytotoxic, full curve, poor fit]",–
CC(=O)c1ccc(NC(=O)Nc2ccc3snnc3c2)cc1,"inconclusive: 15.8 µM [cytotoxic, partial curve, poor fit]",–
Cc1ccccc1OCC(=O)Nc1ccc2oc(-c3ccc(F)cc3)nc2c1,"inconclusive: 10 µM [cytotoxic, single point]",–
COc1ccc2cc3c(N)nn(C(=O)Cc4ccccc4OC)c3nc2c1,–,inactive: -29.5%
CCCCOc1ccc(-c2nnc(-c3ccco3)o2)cc1,"inconclusive: 10 µM [cytotoxic, partial curve]",–
O=C(Nc1ccc(Br)cc1)c1ccc(F)c(S(=O)(=O)NC2CCCCCC2)c1,active: 12.6 µM,–
Cc1ccc(NC(=O)c2nnn(Cc3ccccc3)c2N)cc1C,–,inactive: -8.13%
Cc1ccc2c(c1)N(C(=O)N1CCC(C(=O)NCc3cccc(Br)c3)CC1)CCO2,"inconclusive: 3.98 µM [cytotoxic, partial curve]",–
